Assay results published in the supplement of paper PMC8728848.
The list shows a part of the results.

Legend:
Assay in all cases: glycan array binding signal (z-score within array); higher = stronger binding
Details in all cases: glycan notation: IUPAC condensed, linker removed
[1] = biological target: GalNAc(b1-4)GlcNAc(b1-2)Man
Summary of the method: (§1)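 The binding signal is a Z-score computed within each array and averaged over linkers. Arrays of the same protein sequence at different concentrations or buffers were also averaged together. Data originate from 3228 arrays in the Consortium for Functional Glycomics database, kept only where the protein sequence was available.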

[2] = biological target: GalNAc(b1-4)GlcNAc(b1-2)Man(a1-3)[GalNAc(b1-4)GlcNAc(b1-2)Man(a1-6)]Man(b1-4)GlcNAc(b1-4)GlcNAc
Summary of the method: as §1

[3] = biological target: GalNAc(b1-4)GlcNAc(b1-3)GalNAc(b1-4)GlcNAc
Summary of the method: as §1

[4] = biological target: GalNAc(b1-4)GlcNAc6S
Summary of the method: as §1

[5] = biological target: GalNAc(b1-6)GalNAc
Summary of the method: as §1

[6] = biological target: GalNAc3S(b1-4)GlcNAc
Summary of the method: as §1

[7] = biological target: GalNAc3S(b1-4)GlcNAc3S
Summary of the method: as §1

[8] = biological target: GalNAc3S(b1-4)[Fuc(a1-3)]GlcNAc
Summary of the method: as §1

[9] = biological target: GalNAc4S6S(b1-4)GlcNAc
Summary of the method: as §1

[10] = biological target: GalNAc6S(b1-4)GlcNAc
Summary of the method: as §1

[11] = biological target: Glc(a1-4)Glc
Summary of the method: as §1

[12] = biological target: Glc(a1-4)Glc(a1-4)Glc(a1-4)Glc
Summary of the method: as §1

[13] = biological target: Glc(a1-6)Glc(a1-6)Glc
Summary of the method: as §1

[14] = biological target: Glc(a1-6)Glc(a1-6)Glc(a1-6)Glc
Summary of the method: as §1

[15] = biological target: Glc(b1-4)Glc
Summary of the method: as §1

[16] = biological target: Glc(b1-6)Glc
Summary of the method: as §1

[17] = biological target: GlcA(b1-3)Gal
Summary of the method: as §1

[18] = biological target: GlcA(b1-3)GlcNAc
Summary of the method: as §1

[19] = biological target: GlcA(b1-6)Gal
Summary of the method: as §1

[20] = biological target: GlcA3S(b1-3)Gal(b1-4)GlcNAc(b1-2)Man
Summary of the method: as §1

[21] = biological target: GlcA3S(b1-3)Gal(b1-4)GlcNAc(b1-3)Gal(b1-4)Glc
Summary of the method: as §1

[22] = biological target: GlcNAc(a1-3)Gal(b1-4)GlcNAc
Summary of the method: as §1

[23] = biological target: GlcNAc(a1-4)Gal(b1-3)GlcNAc
Summary of the method: as §1

[24] = biological target: GlcNAc(a1-4)Gal(b1-4)GalNAc
Summary of the method: as §1

[25] = biological target: GlcNAc(a1-4)Gal(b1-4)GlcNAc
Summary of the method: as §1

[26] = biological target: GlcNAc(a1-4)Gal(b1-4)GlcNAc(b1-3)Gal(b1-4)Glc
Summary of the method: as §1

[27] = biological target: GlcNAc(a1-4)Gal(b1-4)GlcNAc(b1-3)Gal(b1-4)GlcNAc
Summary of the method: as §1

[28] = biological target: GlcNAc(a1-4)Gal(b1-4)GlcNAc(b1-3)Gal(b1-4)GlcNAc(b1-3)Gal(b1-4)GlcNAc
Summary of the method: as §1

[29] = biological target: GlcNAc(a1-4)Gal(b1-4)GlcNAc(b1-3)Gal(b1-4)[Fuc(a1-3)]GlcNAc(b1-3)Gal(b1-4)[Fuc(a1-3)]GlcNAc
Summary of the method: as §1

[30] = biological target: GlcNAc(a1-6)Gal(b1-4)GlcNAc
Summary of the method: as §1

[31] = biological target: GlcNAc(b1-2)Gal(b1-3)GalNAc
Summary of the method: as §1

[32] = biological target: GlcNAc(b1-2)Man(a1-3)[GlcNAc(b1-2)Man(a1-6)]Man(b1-4)GlcNAc(b1-4)GlcNAc
Summary of the method: as §1

[33] = biological target: GlcNAc(b1-2)Man(a1-3)[GlcNAc(b1-2)Man(a1-6)]Man(b1-4)GlcNAc(b1-4)[Fuc(a1-6)]GlcNAc
Summary of the method: as §1

[34] = biological target: GlcNAc(b1-2)Man(a1-3)[GlcNAc(b1-4)][GlcNAc(b1-2)Man(a1-6)]Man(b1-4)GlcNAc(b1-4)GlcNAc
Summary of the method: as §1

[35] = biological target: GlcNAc(b1-2)Man(a1-3)[GlcNAc(b1-4)][GlcNAc(b1-2)Man(a1-6)]Man(b1-4)GlcNAc(b1-4)[Fuc(a1-6)]GlcNAc
Summary of the method: as §1

[36] = biological target: GlcNAc(b1-2)[GlcNAc(b1-4)]Man(a1-3)[GlcNAc(b1-2)Man(a1-6)]Man(b1-4)GlcNAc(b1-4)GlcNAc
Summary of the method: as §1

[37] = biological target: GlcNAc(b1-2)[GlcNAc(b1-4)]Man(a1-3)[GlcNAc(b1-4)][GlcNAc(b1-2)Man(a1-6)]Man(b1-4)GlcNAc(b1-4)GlcNAc
Summary of the method: as §1

B1: Epa13 (Candida glabrata) (protein)
chain: MGSSHHHHHHSSGLVPRGSHMASDSSENGYAHGCSPSIRAKLKPGLSMEIYSYALRPTDDHCWDSAYLDPMFPRTGYLTHKLLGKAEGIIGPLNFLAKNPACIPAVSTLPLAFHFPKPFTITNFTMLLYGYLSPKKTGKYTFKLLADDLLLMNFGADNAFDCCSHDATKDNIGEYVAYSVWPGVNKNVTVYLESGIYYPLRLFFNNRDAIAQLDFAYYFNDSPIRQTDFSGMFFSIPDSVKCPANI
With B1 the “glycan array binding signal (z-score)” value [1] was -0.532, the “glycan array binding signal (z-score)” value [2] was 0.35 and the “glycan array binding signal (z-score)” value [3] was -0.394. For the same binder, the “glycan array binding signal (z-score)” value [4] was -0.202, the “glycan array binding signal (z-score)” value [5] was -0.464 and the “glycan array binding signal (z-score)” value [6] was -0.301. The “glycan array binding signal (z-score)” value [7] was -0.312, the “glycan array binding signal (z-score)” value [8] was -0.274 and the “glycan array binding signal (z-score)” value [9] was -0.159. For the same binder, the “glycan array binding signal (z-score)” value [10] was -0.075, the “glycan array binding signal (z-score)” value [11] was -0.521 and the “glycan array binding signal (z-score)” value [12] was 0.137. For the same binder, the “glycan array binding signal (z-score)” value [13] was -0.186, the “glycan array binding signal (z-score)” value [14] was -0.355 and the “glycan array binding signal (z-score)” value [15] was -0.276. The “glycan array binding signal (z-score)” value [16] was -0.517, the “glycan array binding signal (z-score)” value [17] was -0.273 and the “glycan array binding signal (z-score)” value [18] was -0.289. For the same binder, the “glycan array binding signal (z-score)” value [19] was 0.431, the “glycan array binding signal (z-score)” value [20] was -0.131 and the “glycan array binding signal (z-score)” value [21] was -0.046. For the same binder, the “glycan array binding signal (z-score)” value [22] was -0.07, the “glycan array binding signal (z-score)” value [23] was -0.421 and the “glycan array binding signal (z-score)” value [24] was -0.031. The “glycan array binding signal (z-score)” value [25] was -0.274, the “glycan array binding signal (z-score)” value [26] was -0.672 and the “glycan array binding signal (z-score)” value [27] was 0.04. The “glycan array binding signal (z-score)” value [28] was -0.382, the “glycan array binding signal (z-score)” value [29] was -0.218 and the “glycan array binding signal (z-score)” value [30] was -0.205. For the same binder, the “glycan array binding signal (z-score)” value [31] was -0.603, the “glycan array binding signal (z-score)” value [32] was -0.354 and the “glycan array binding signal (z-score)” value [33] was -0.136. For the same binder, the “glycan array binding signal (z-score)” value [34] was -0.041, the “glycan array binding signal (z-score)” value [35] was 0.145 and the “glycan array binding signal (z-score)” value [36] was -0.393. For the same binder, the “glycan array binding signal (z-score)” value [37] was -0.299.
